Test results taken from PubChem BioAssay AID1457 (National Center for Advancing Translational Sciences (NCATS), 2008).
In all, about 210,000 compounds went through this assay and about 730 (0.35%) were called active. The shares of active, inactive and inconclusive entries below differ from those in the screen. Calls come from the whole dose curve; as a rule, active = well fitted inhibition curve with a large enough effect; inconclusive = small, poorly fitted or top-dose-only effect; inactive = no such curve, though single readings can be large or run the other way. Potencies beside an inconclusive call are fits to weak or partial responses and may not hold up.

Test: qHTS Assay for Identifying the Cell-Membrane Permeable IMPase Inhibitors: Potentiation with Lithium; note: nearly all actives have a fitted effect of over 50% in size
Details: CHO-M1 cells, IP1 TR-FRET (IP-One), carbachol + lithium; series mostly up to 59.4 µM
How it was run: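 CHO cells stably expressing M1 receptor (2000/well) were cultured 16–30 h, then exposed to compounds with a small lithium addition for 30 min at 37C. IP1 was measured by TR-FRET competition; AC50 from Hill fits.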
Potency is the fitted concentration of half-maximal effect.

| Structure (SMILES) | Potency |
| --- | --- |
| CCc1nnc(NC(=O)CSc2nc(C3CCCCC3)nc3ccccc23)s1 | active: 7.94 µM |
| CCC1=NC(c2ccccc2OC)N(O)C1(C)C (stereo not given) | inconclusive: 28.2 µM [inhibitor, single point] |
| CC(=O)Nc1cccc(NC(=O)c2cc(-c3cccnc3)nc3ccc(Br)cc23)c1 | active: 11.2 µM |
| Cc1cccc(C(=O)N[C@H](C(=O)Nc2ccc(S(=O)(=O)NC3=NCCCCC3)cc2)C(C)C)c1 | inconclusive: 28.2 µM [inhibitor, single point] |
| O=C(CCCCCn1c(=S)[nH]c2ccc(N3CCOCC3)cc2c1=O)NCc1ccc2c(c1)OCO2 | inconclusive: 28.2 µM [inhibitor, single point] |
| CCCCCCNC(=O)C(C#N)c1nc2ccccc2nc1N1CCOCC1 (stereo not given) | inconclusive: 31.6 µM [inhibitor, partial curve, poor fit] |
| CN(C)c1ccc(NC(=O)c2cccc(N3C(=O)C4C5C=CC(C5)C4C3=O)c2)cc1 (stereo not given) | inconclusive: 20 µM [inhibitor, single point] |
| CCCC(=O)Nc1ccc(C(=O)Nc2ccc([N+](=O)[O-])cc2OC)cc1 | inconclusive: 22.4 µM [inhibitor, single point] |
| COc1ccc(-c2nn(C)c(=O)c3ccccc23)cc1NC(=O)Cn1nc(-c2ccccc2)c2ccccc2c1=O | inconclusive: 11.2 µM [inhibitor, single point] |
| CCN(CC)c1ccc2c(Cl)c(Br)c(=O)oc2c1 | inconclusive: 12.6 µM [inhibitor, single point] |
| O=C(CSc1nc2c(sc3ccccc32)c(=O)n1-c1ccccc1)NCc1ccco1 | inconclusive: 10 µM [inhibitor, partial curve] |
| C#CCn1c(=NC(=O)c2ccc(Br)s2)sc2cc(NC(C)=O)ccc21 | inconclusive: 12.6 µM [inhibitor, partial curve] |
| COc1ccccc1-c1nnc(Nc2nc3c(OC)cccc3s2)o1 | inconclusive: 22.4 µM [inhibitor, single point] |
| Cc1cccc(C2=NN(c3ccccc3)[C@H](CO)[C@H]2c2ccc(F)cc2)c1 | inconclusive: 28.2 µM [inhibitor, single point] |
| COc1ccc(OC)c(Nc2nc(-c3ccccc3O)nc3ccccc23)c1 | inconclusive: 28.2 µM [inhibitor, single point] |
| Cc1nnc(SCC(C)C)[nH]c1=O | inactive |
| O=C(COC(=O)c1ccc2c(c1)OCCO2)Nc1cc(Cl)ccc1Cl | inconclusive: 12.6 µM [inhibitor, single point] |
| CCCCn1c(SCC(=O)c2ccc(O)c(O)c2)nc2ccsc2c1=O | inactive |
| COc1ccc(N2C(=O)C(=O)/C(=C(/O)c3ccc(C)cc3)C2c2cccnc2)cc1 (stereo not given) | inconclusive: 12.6 µM [inhibitor, single point] |
| O=C(C1=C(O)C(=O)N(Cc2ccccc2)C1c1ccco1)c1ccco1 (stereo not given) | inconclusive: 14.1 µM [inhibitor, partial curve] |
| COC(=O)c1cc(Br)c(=O)n(-c2cccc(F)c2)c1 | inconclusive: 28.2 µM [inhibitor, single point] |
| CCCn1nc(C(=O)Oc2ccc3c(C)cc(=O)oc3c2)c2ccccc2c1=O | inconclusive: 8.91 µM [inhibitor, partial curve] |

| Structure (SMILES) | Potency |
| --- | --- |
| CCOC(=O)c1sc(=NC(=O)c2ccc(OC(C)C)cc2)n(C)c1C | inconclusive: 22.4 µM [inhibitor, single point] |
| CCc1cccc2c(C=C(C#N)C#N)cn(CC(=O)N3CCCCCC3)c12 | inconclusive: 28.2 µM [inhibitor, single point] |
| CCc1ccc(OCC(=O)NC(=S)Nc2ccc(C(C)=O)cc2)c(Br)c1 | inconclusive: 11.2 µM [inhibitor, single point] |
| CCOc1ccc2cc(C#N)c(SCC(=O)N3CCC(C)CC3)nc2c1 | inconclusive: 28.2 µM [inhibitor, single point] |
| CCCc1nc2sc(C(=O)OCC)c(N)c2c2c1COC(C)(C)C2 | inconclusive: 10 µM [inhibitor, single point] |
| CCOC(=O)C1CCN(C(=O)CSc2c3c(nc4ccccc24)CCC3)CC1 | inconclusive: 10 µM [inhibitor, single point] |
| COc1ccc(/C=C\C(=O)NCc2ccc3c(c2)cc(C)n3C)cc1OC | inconclusive: 28.2 µM [inhibitor, single point] |
| COc1ccc(-c2nc3cnc(Oc4ccccc4)nc3n(Cc3cccs3)c2=O)cc1 | active: 8.91 µM |
| NC(=O)c1ccc(-c2ccc(Br)cc2)o1 | inconclusive: 12.6 µM [inhibitor, partial curve] |
| O=C(Cn1cc(C(=O)c2cccs2)c2ccccc21)NCC1CCCO1 (stereo not given) | inconclusive: 3.55 µM [inhibitor, partial curve] |
| Cc1onc(-c2ccccc2)c1C(=O)NC(=S)NNC(=O)c1ccc(O)cc1 | inactive |
| CC1(C)CC(=O)c2c(nc(SCC(=O)Nc3nsc(-c4ccccc4)n3)c(C#N)c2-c2ccccc2)C1 | inconclusive: 12.6 µM [inhibitor, single point] |
| COC(=O)c1c(NC(C)=O)sc2c1CCCC2 | inactive |
| N#Cc1c2n(c3c(=S)nc[nH]c13)CCCCC2 | inconclusive: 14.1 µM [inhibitor, partial curve, poor fit] |
| O=C1c2cccc3c(O)ccc(c23)C(=O)N1Cc1ccco1 | inactive |
| COc1ccc(C2C(C(=O)c3cccs3)=C(O)C(=O)N2c2nncs2)cc1 (stereo not given) | inconclusive: 11.2 µM [inhibitor, partial curve] |
| O=C(CNC(=O)c1ccco1)OCC(=O)c1cccc2ccccc12 | inconclusive: 31.6 µM [inhibitor, single point] |
| CC(=O)C1=C(O)C(=O)N(c2ccc(Br)cn2)C1c1ccc(F)cc1 (stereo not given) | inconclusive: 10 µM [inhibitor, partial curve] |
| O=C1N/C(=C\c2ccc(N3CCOCC3)c(F)c2)C(=O)N1Cc1ccccc1 | inconclusive: 31.6 µM [inhibitor, single point] |
| COCc1cc(C)nc(SCC(=O)Nc2cc3c(cc2C#N)OCO3)c1C#N | inconclusive: 28.2 µM [inhibitor, single point] |
| CC(=O)NC(c1cccs1)c1cc([N+](=O)[O-])c2cccnc2c1O (stereo not given) | inactive |
| O=c1c2ccccc2c(C=NC2CCS(=O)(=O)C2)c(O)n1-c1ccccc1 (stereo not given) | inconclusive: 2.24 µM [inhibitor, full curve] |

| Structure (SMILES) | Potency |
| --- | --- |
| CCCCCCCN | inactive |
| CC[n+]1c(/C=C2\Sc3ccccc3N2C)ccc2cccc(C)c21 | inconclusive: 28.2 µM [inhibitor, single point] |
| O=C(Cn1cnc2ccccc2c1=O)Nc1nc2ccccc2s1 | inconclusive: 28.2 µM [inhibitor, single point] |
| Cc1cc(NC(=O)c2cc(-c3ccc(C)s3)nc3ccccc23)no1 | inconclusive: 11.2 µM [inhibitor, partial curve] |
| COc1ccc(Oc2ncnc3c2oc2ccc(Br)cc23)cc1 | inconclusive: 2.24 µM [inhibitor, partial curve, poor fit] |
| O=C(CSc1nnc(-c2ccc3c(c2)OCO3)n1-c1ccccc1)c1ccccc1 | inconclusive: 14.1 µM [inhibitor, single point] |
| CCc1cc2ccccc2nc1SCC(=O)Nc1cc(C)on1 | active: 10 µM |
| CCCCNC(=O)Cn1cnc2c(cnn2-c2ccc(C)c(C)c2)c1=O | inconclusive: 28.2 µM [inhibitor, single point] |
| CC(=O)c1cccc(NC(=O)c2csc(-n3nc(C)cc3C(F)(F)F)n2)c1 | inconclusive: 25.1 µM [inhibitor, single point] |
| Cc1nn(CCc2nn[nH]n2)c2nc(-c3ccccc3)cc(C(F)(F)F)c12 | inactive |
| C=CCOC(=O)C1=C[C@@H](c2ccc(Br)cc2)C[C@@H](OCc2ccc(CO)cc2)O1 | inactive |
| COC(=O)C1=CN(CC2CCCO2)C=C(C(=O)OC)C1c1cc(OC)c(OC)c(OC)c1 (stereo not given) | inconclusive: 11.2 µM [inhibitor, partial curve] |
| Cc1ccc2cc(C)c3nnc(SCC(=O)N4CCN(C(=O)c5ccco5)CC4)n3c2c1 | inconclusive: 28.2 µM [inhibitor, single point] |
| O=C(Nc1ccccc1)c1cccc(-c2nnc(-c3ccccc3)o2)c1 | inconclusive: 11.2 µM [inhibitor, single point] |
| Cc1cc2cc(CN(Cc3ccco3)C(=O)C3CCCCC3)c(=O)[nH]c2cc1C | inconclusive: 28.2 µM [inhibitor, single point] |
| Cc1cc(C)cc(-c2nnc(SCC(=O)c3ccc4c(c3)OCCO4)o2)c1 | inconclusive: 17.8 µM [inhibitor, single point] |
| Cc1ccc(NC(=O)CSC2=C(C#N)C(c3ccco3)CC(=O)N2)cc1 (stereo not given) | inactive |
| O=C(NC(CO)Cc1ccc([N+](=O)[O-])cc1)C(Cl)Cl (stereo not given) | inconclusive: 11.2 µM [inhibitor, single point] |
| O=C(CSc1nnc2scc(-c3ccccc3)n12)Nc1nsc(-c2ccccc2)n1 | inconclusive: 28.2 µM [inhibitor, single point] |
| COc1cc(C(=O)Nc2c(-c3ccccn3)c(=O)c3ccccc3n2C)cc(OC)c1OC | inconclusive: 4.47 µM [inhibitor, single point] |
| CCOCC(=O)Nc1c(C(=O)Nc2ccccc2OC)oc2ccccc12 | inconclusive: 22.4 µM [inhibitor, single point] |
